B1: PRRG4, Q9BZD6 (protein)
chain: MFTLLVLLSQLPTVTLGFPHCARGPKASKHAGEEVFTSKEEANFFIHRRLLYNRFDLELFTPGNLERECNEELCNYEEAREIFVDEDKTIAFWQEYSAKGPTTKSDGNREKIDVMGLLTGLIAAGVFLVIFGLLGYYLCITKCNRLQHPCSSAVYERGRHTPSIIFRRPEEAALSPLPPSVEDAGLPSYEQAVALTRKHSVSPPPPYPGHTKGFRVFKKSMSLPSH
B2: KIAA0895, Q8NCT3 (protein)
chain: MAGCTRKLTHLRKRIHRPRRRTTRRWKRWFKFRKRKGEKRPRPNHKAVARRAKLKFSTSEKLHWPEQELAKKSILNAEDSLIIDNKRSISHLSSGVLKDIFTTGTSSYNVLLQSKEEKKYHSQKQSSSTYSKRCRKPSKSPNTSRSKDPRRMKALVPVTSSGTWYCLERRPAVFVTSSVSSPVKFTHDISVTGNGIVLPPKPKSKVKWCHFSTLPKPKPQLSRSFEKGDDFSGKKFCILTAIKPTNLEKEKLRFFKSDYTYNPQFEYANPALPSVLAKHSHASDRFLKQIVVHLTEDLLSRASMTVVNGCPTLTINVSTAREHWLEGMLRHEIGTHYFRGINNLQQPWNSWTGRKKHELKPNNPTEEGLASIHSVLFRKDPFLWRAALLYYTVYQASQMSFCELFKDIGRFVKDPNTRWDYCVRAKRGWTDTSQPGCFSKDQVYLDGILQILRYRDTIDFHLLTALGKVSYEDVDRLKGLAVTENMRVPHFLQDHGRYMEHLEKIMEVNELTDRELKDLI
B3: SCNN1D, P51172 (protein)
chain: MRAVLSQKTTPLPRYLWPGHLSGPRRLTWSWCSDHRTPTCRELGSPHPTPCTGPARGWPRRGGGPCGFTSAGHVLCGYPLCLLSGPIQGCGTGLGDSSMAFLSRTSPVAAASFQSRQEARGSILLQSCQLPPQWLSTEAWTGEWKQPHGGALTSRSPGPVAPQRPCHLKGWQHRPTQHNAACKQGQAAAQTPPRPGPPSAPPPPPKEGHQEGLVELPASFRELLTFFCTNATIHGAIRLVCSRGNRLKTTSWGLLSLGALVALCWQLGLLFERHWHRPVLMAVSVHSERKLLPLVTLCDGNPRRPSPVLRHLELLDEFARENIDSLYNVNLSKGRAALSATVPRHEPPFHLDREIRLQRLSHSGSRVRVGFRLCNSTGGDCFYRGYTSGVAAVQDWYHFHYVDILALLPAAWEDSHGSQDGHFVLSCSYDGLDCQARQFRTFHHPTYGSCYTVDGVWTAQRPGITHGVGLVLRVEQQPHLPLLSTLAGIRVMVHGRNHTPFLGHHSFSVRPGTEATISIREDEVHRLGSPYGHCTAGGEGVEVELLHNTSYTRQACLVSCFQQLMVETCSCGYYLHPLPAGAEYCSSARHPAWGHCFYRLYQDLETHRLPCTSRCPRPCRESAFKLSTGTSRWPSAKSAGWTLATLGEQGLPHQSHRQRSSLAKINIVYQELNYRSVEEAPVYSVPQLLSAMGSLCSLWFGASVLSLLELLELLLDASALTLVLGGRRLRRAWFSWPRASPASGASSIKPEASQMPPPAGGTSDDPEPSGPHLPRVMLPGVLAGVSAEESWAGPQPLETLDT

Some of the results follow. Interaction screen of human proteins with wild-type SARS-CoV-2 proteins by split-DHFR complementation in yeast, 1 µg/mL methotrexate. Value = fitness of the pair (three or more lineages) minus that of the viral protein without a human partner, on a scale set by negative (0) and fused positive (1) controls, mean of up to three cultures; higher = more likely to interact. Active = false discovery rate below 0.05 (one-sided t-test) in at least one culture. Nearly all pairs are not hits, and differences among them are mostly noise (correlation between cultures about 0.3); most hits were seen in one culture only. Human sequences are the Swiss-Prot entries looked up by gene name; the clone may be another isoform. NSP2 values were corrected by the authors for a growth advantage. Listed are human proteins with a hit and a random twelfth of the others.

In the first experiment the target is SARS-CoV-2 M. In words: yeast fitness gain over the viral ORF with no human partner (scaled fitness); higher = more likely to interact. As for the experimental part:
(§1)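 Split mouse DHFR complementation in pooled diploid yeast: human ORFeome clones carry one fragment and viral ORFs the other; barcoded lineages compete in 1 µg/mL methotrexate and fitness is read by barcode sequencing in up to three cultures.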
Turning to B1, the yeast fitness gain is inactive: 0.0635.

As for B2, the yeast fitness gain is inactive: -0.0635.

As to B3, the yeast fitness gain was inactive: 0.0565.

Another experiment deals with SARS-CoV-2 NSP1. Described as above. As for the experimental part: as §1
Consider B1, for which the yeast fitness gain was inactive: 0.0385.

As to B3, the yeast fitness gain is inactive: -0.0304.

For a further experiment, the target named is SARS-CoV-2 NSP10. The experiment is described as above. The method, then: as §1
In the case of B1, the yeast fitness gain was inactive: 0.0494.

With B2, the yeast fitness gain is inactive: -0.021.

Turning to B3, the yeast fitness gain is inactive: -0.0301.

For a further experiment, the target named is SARS-CoV-2 NSP12. The experiment is described as above. The method, then: as §1
Consider B1, for which the yeast fitness gain was inactive: -0.025.

With B3, the yeast fitness gain was inactive: -0.0146.

The target in another experiment is SARS-CoV-2 NSP13. The experiment is described as above. As for the experimental part: as §1
For the molecule B1, the yeast fitness gain is inactive: -0.0203.

B3: the yeast fitness gain is inactive: -0.0086.

A further experiment concerns the target SARS-CoV-2 NSP15. The experiment is described as above. The method, then: as §1
In the case of B1, the yeast fitness gain is inactive: -0.0468.

For B3, the yeast fitness gain is inactive: -0.245.

For the next experiment, the target named is SARS-CoV-2 NSP16. Described as above. The method, then:
as §1
Turning to B1, the yeast fitness gain is inactive: -0.196.

B3: the yeast fitness gain was inactive: 0.0516.

Another experiment addresses SARS-CoV-2 NSP2. The experiment is described as above. The method, then:
as §1
Consider B1, for which the yeast fitness gain is inactive: -0.219.

On to B2, for which the yeast fitness gain was inactive: -0.473.

Take B3: the yeast fitness gain was inactive: -0.13.

The next experiment addresses SARS-CoV-2 NSP5. Described as above. The method, then: as §1
With B1, the yeast fitness gain is inactive: 0.0839.

Consider B2, for which the yeast fitness gain is inactive: 0.025.

As to B3, the yeast fitness gain is inactive: -0.0383.

In another experiment the target is SARS-CoV-2 NSP6. The description is as above. As for the experimental part: as §1
For the molecule B1, the yeast fitness gain is inactive: -0.0606.

B3: the yeast fitness gain was inactive: -0.104.

In another experiment the target is SARS-CoV-2 NSP7. The description is as above. As for the experimental part:
as §1
Turning to B1, the yeast fitness gain was inactive: -0.0809.

With B3, the yeast fitness gain is inactive: -0.0757.

In the next experiment the target is SARS-CoV-2 NSP9. Described as above. The method, then:
as §1
Regarding B1, the yeast fitness gain was inactive: -0.111.

For the molecule B3, the yeast fitness gain is inactive: -0.183.

The target of the next experiment is SARS-CoV-2 ORF10. The experiment is described as above. The method, then: as §1
Take B1: the yeast fitness gain was inactive: -0.0871.

As for B2, the yeast fitness gain is inactive: 0.0688.

With B3, the yeast fitness gain was inactive: 0.0558.

The next experiment addresses SARS-CoV-2 ORF3B. The description is as above. As for the experimental part: as §1
With B1, the yeast fitness gain was inactive: 0.00938.

For the molecule B3, the yeast fitness gain was inactive: -0.134.

The next experiment addresses SARS-CoV-2 ORF6. The description is as above. The method, then: as §1
Turning to B1, the yeast fitness gain was inactive: -0.0409.

On to B2, for which the yeast fitness gain was inactive: -0.0182.

Take B3: the yeast fitness gain is inactive: -0.0122.

The next experiment addresses SARS-CoV-2 ORF7A. The experiment is described as above. The method, then:
as §1
Consider B1, for which the yeast fitness gain is inactive: 0.0487.

B3: the yeast fitness gain was inactive: -0.0816.

A further experiment concerns the target SARS-CoV-2 ORF7B. The experiment is described as above. The method, then:
as §1
Take B1: the yeast fitness gain is inactive: 0.0518.

Turning to B3, the yeast fitness gain was inactive: 0.0288.

For a further experiment, the target named is SARS-CoV-2 ORF8. Described as above. The method, then:
as §1
With B1, the yeast fitness gain is inactive: -0.07.

For the molecule B2, the yeast fitness gain is inactive: -0.0359.

Consider B3, for which the yeast fitness gain is inactive: 0.0627.

In a further experiment the target is SARS-CoV-2 ORF9B. Described as above. As for the experimental part: as §1
B1: the yeast fitness gain is inactive: -0.0107.

As to B2, the yeast fitness gain is inactive: 0.00753.

Take B3: the yeast fitness gain was inactive: 0.0148.

Another experiment has as its target SARS-CoV-2 S. The experiment is described as above. The method, then:
as §1
Regarding B1, the yeast fitness gain is inactive: -0.166.

Consider B2, for which the yeast fitness gain is inactive: -0.284.

B3: the yeast fitness gain was inactive: -0.0286.

The target in the next experiment is SARS-CoV-2 NSP8. The description is as above. The method, then:
as §1
Turning to B2, the yeast fitness gain is inactive: -0.517.

As to B3, the yeast fitness gain is inactive: -0.0821.

Another experiment addresses SARS-CoV-2 NSP14. The experiment is described as above. The method, then: as §1
B3: the yeast fitness gain is inactive: -0.524.

Another experiment deals with SARS-CoV-2 ORF3A. The description is as above. As for the experimental part: as §1
Regarding B3, the yeast fitness gain is inactive: -0.226.

The next experiment concerns the target SARS-CoV-2 ORF9Bwu (the 73-codon ORF). Described as above. The method, then:
as §1
In the case of B3, the yeast fitness gain was inactive: -0.0171.

The values above are taken from the supplement of paper PMC11741623.
